Data as given in PubChem BioAssay AID1963576 (National Center for Advancing Translational Sciences (NCATS), 2024).
The campaign covered roughly 46,000 compounds. About 60 (0.1%) were called active. Not shown: some 3% with an inconclusive outcome. The call rests on the fitted dose curve; in most records, active means well fitted inhibition curve with a large enough effect; inconclusive means small, poorly fitted or top-dose-only effect; inactive means no such curve, though single readings can be large or run the other way. The list shows a part of the results.

experiment: Primary qHTS assay for Inhibitors of ovarian cancer metastasis using an organotypic tumor microenvironment (TME) model.; further: nearly all actives have a fitted effect of over 65% in size;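 on activity change, negative = inhibition: plate controls were DMSO wells for no effect and tomatine positive control wells for full effect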; details: SKOV3ip1-GFP adhesion/invasion on 3D omental model, fluorescence; series mostly up to 45.8 µM; activity change, negative = inhibition: at the top concentration
Procedure, shortened: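 qHTS, 4-pt dose (0.36-46 umol/L); SKOV3ip1-GFP, 1,200 cells/well, no FBS; primary omental fibroblast/mesothelial co-culture 48 h pre-grown; 2 h RT + 16 h 37 C; PBS wash, 4% PFA; GFP count 488/509 nm.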

Activity change, negative = inhibition, inactive:
Cc1cc(C)c(S(=O)(=O)N2CCC(N3CCN(Cc4ccc(F)cc4)C(=O)C3=O)CC2)c(C)c1 8.98%
COC(=O)Cn1ccc2cc(S(=O)(=O)N3CCCCC3)ccc21 -1.06%
Cc1ccccc1NC(=O)c1ccc(F)c(S(=O)(=O)N2CCc3ccccc3C2)c1 3.61%
Cc1cccc(OCCOCCn2c(-c3ccc(Cl)cc3)nc3ccccc3c2=O)c1C -3.42%
COc1ccc(-c2cc(-c3ccc4c(c3)NC(=O)CO4)nc3c2COc2ccc(C)cc2-3)cc1 8.42%
CCc1ccccc1NC(=O)c1cnn(-c2ccc(F)cc2)c1C1CCNCC1 1.55%
CCOCCCNC(=O)Cn1cc2c(n1)-c1c(oc(C(=O)N3CCCC3)c1C)CC2 -19.8%
COc1c(Cl)cc(Cl)cc1/C=C(\C#N)c1nc(-c2ccc(Cl)cc2)cs1 0.757%
O=C(O)COc1ccccc1C1Nc2ccccc2-c2nnc(SCc3ccc(Cl)cc3)nc2O1 (stereo unspecified) -9.64%
O=c1cc(-c2cccc3c2Sc2ccccc2S3)oc(N2CCOCC2)c1 -13.4%
Cc1ccc(C)c(N2CCN(C(=O)C3CCC(CNS(=O)(=O)c4ccc(Br)s4)CC3)CC2)c1 (stereo unspecified) -4.13%
CC(C)(C)C(=O)Nc1ccc2nc(SCCOc3ccccc3Cl)sc2c1 -5.21%
Oc1cccc(Nc2cc(-c3ccccc3)ncn2)c1 3.43%
CCOc1ccccc1C(=O)Nc1cc(-c2nc3cccnc3s2)ccc1C 0.439%
COc1ccc(Nc2oc(-c3ccc(COc4ccccc4)o3)nc2C#N)cc1 -3.22%
COc1ccc(-n2c(SCc3nc(-c4ccc(Cl)cc4)no3)nnc2-c2ccncc2)cc1 -26.2%
CCOC(=O)N1CCC(NC(=O)c2cnn(-c3ccc(C)cc3)c2C2CCN(C(=O)OC(C)(C)C)CC2)CC1 3.89%
N#Cc1ccc(NC(=O)c2ccc3c(c2)nnn3C2CCCC2)cc1 51.6%
O=C(Nc1cccc(O)c1)c1cc(-c2ccccc2F)no1 -0.164%
CCc1ccc(NC(=O)Cn2nnc(C(=O)Nc3ccc(F)cc3)c2N)cc1 -7.26%
Cc1ccc(C)c(CSc2cn(CCNC(=O)c3cccs3)c3ccccc23)c1 1.53%
Cc1ccc(CSc2nc3cc(C(=O)NC4CCCC4)ccc3c(=O)n2Cc2ccccc2)cc1 3.8%
Cc1ccccc1NC(=O)Cn1nnc(C(=O)NCc2cccs2)c1N -0.395%
COc1cc(NC(=O)c2cc(S(=O)(=O)N3CCC(C)CC3)cn2C)cc(OC)c1OC 7.5%
CCOC(=O)C1CCCN(C(=O)Cn2ncc3c4ccccc4n(C)c3c2=O)C1 (stereo unspecified) -1.04%
O=C(NCc1cccc(Cl)c1)c1ccc2c(Cl)c3c(nc2c1)CCCC3 -1.54%
COc1ccc(CCN2C(=O)N(c3ccc(C)cc3)C(=O)C2CC(=O)Nc2ccc(OC)cc2)cc1 (stereo unspecified) 1.36%
COc1ccc(NC(=O)CSc2nc3nc(C)cc(C)n3n2)cc1OC -0.713%
CCc1ccc(S(=O)(=O)Nc2cccc(-c3ccc(OC)nn3)c2)s1 9.11%
Cc1cccc2c(=O)cc(CSc3ccccc3NC(=O)c3cccc(Br)c3)[nH]c12 -5.17%
CCC1CCCCN1CCCNC(=O)c1c(C)oc2ncn(CC(C)C)c(=O)c12 (stereo unspecified) -6.07%
COc1cccc(NC(=O)c2sc3nc(C)c(C(=O)Nc4ccc(C)cc4C)c(-c4ccc(C)o4)c3c2N)c1 -22.2%
CC(C)c1ccc2oc(-c3cc(NC(=O)c4cccnc4)ccc3Cl)nc2c1 -9.29%
COc1cccc2c1cc1c(=O)n(CC(=O)NCc3ccc(N(C)C)cc3)nc(C)n12 -1.13%
CCOc1ccccc1NC(=O)NCc1noc2ccc(C)cc12 -14.2%
CN(C(=O)CSc1nc2ccc(NC(=O)CCc3ccccc3)cc2s1)c1ccccc1 -27.2%
CCOc1ccc(-c2cc(C(=O)N3CCN(c4cccc(C)c4)C(C)C3)c3ccccc3n2)cc1 (stereo unspecified) -27.9%
Cc1ccc(C)c(N2CCN(C(=O)CCCCCn3c(=O)[nH]c4ccccc4c3=O)CC2)c1 -6.65%
Cc1ccc(C)c(Cn2c(SCC(=O)N(C)Cc3ccccc3)nc3ccccc32)c1 6.09%
Cc1ccccc1OCC(=O)Nc1ccc2nc(SCCOc3ccccc3)sc2c1 0.842%
O=C(CSc1nc2ccccc2nc1Cc1ccc(Cl)cc1)N1CCN(c2ccccc2F)CC1 9.1%
CCOC(=O)c1ccc(NC(=O)C2CC(=O)N(c3ccc(C(C)C)cc3)C2)cc1 (stereo unspecified) 4.93%
COc1ccc(C(=O)Nc2ccc3oc(-c4ccc(OC)cc4)nc3c2)cc1 -27%
CCc1cccc(NC(c2nnc(-c3ccccc3)o2)c2ccc(F)cc2Cl)c1 (stereo unspecified) 4.7%
CCCC(=O)Nc1cc(-c2nc3cccnc3s2)ccc1C 13.6%
COc1ccc2c(c1)Cc1sc(NC(=O)c3cccc(F)c3)nc1-2 22.9%
CC(NC(=O)c1cccc(NC(=O)c2nsc3ccccc23)c1)c1ccccc1 (stereo unspecified) -0.355%
CCN1c2ccccc2-c2nc(SCC(=O)Nc3c(C)cc(C)cc3C)ncc2S1(=O)=O -26.5%
COc1cccc(-n2c(-c3ccco3)nc3c(cnn3-c3ccc(C)cc3)c2=O)c1 0.974%
Cc1ccc(C(=O)CSc2nnc(-c3ccccc3)n2-c2ccccc2)cc1 8.01%
CCOc1ccc(C(=O)c2cn(Cc3ccc(OC)cc3)c3cc(OC)c(OC)cc3c2=O)cc1 0.355%
CCOc1ccc(NS(=O)(=O)c2ccc3[nH]cc(C(=O)NC4CCCC4)c(=O)c3c2)cc1 5.37%
CC(=O)Nc1ccc(S(=O)(=O)NC2(C(F)(F)F)C(=O)Nc3c2c(=O)[nH]c(=O)n3-c2ccc(C)c(C)c2)cc1 (stereo unspecified) 0.709%
Cc1noc(Cn2c(=O)c3ccccc3n(CC(=O)Nc3ccc(Cl)cc3)c2=O)n1 -2.04%
CC1=C(C(=O)NCc2ccc(C)cc2)C2(CCCCC2)OC1=O 4.04%
Cc1ccc2cccc(NC(=O)C(C)Oc3ccc(C)c(C)c3)c2n1 (stereo unspecified) 0.756%
CCOc1ccc(NC(=O)CSc2ncc3c(n2)-c2cc(Cl)ccc2N(C)S3(=O)=O)cc1 -6.01%
O=C(O)c1cc(O)c2c(c1)C(=O)c1cccc(O)c1C2=O 12.5% [at 92.2 µM]
COc1ccc(NC(=O)CCNS(=O)(=O)c2cccc3nonc23)c(OC)c1 -5.05%
CC(=O)N1CCCc2cc(S(=O)(=O)N3CCCC(C(=O)Nc4cccc(F)c4)C3)ccc21 (stereo unspecified) 11.9%
O=c1c2cc3c(cc2n(Cc2cccc(Cl)c2)c(=O)n1Cc1nc(-c2ccccc2)no1)OCO3 15.8%
COc1ccc(N2CCN(C(=O)c3ccc(Nc4nc5ccccc5n5nnnc45)cc3)CC2)cc1 -12.5%
O=C(Nc1ncc(Cc2ccc(Cl)cc2)s1)c1ccc2c(c1)CC(c1ccccc1)OC2=O (stereo unspecified) 1.51%
NC(=NCc1ccccc1)NC(=O)c1nc(Cl)c(N)nc1N 10.6%
COc1cccc(C2CC(=O)Nc3c2c(=O)nc2c(C)cccn32)c1 (stereo unspecified) 8.01%
CCCn1c2ccccc2c2cnn(CC(=O)NCCc3ccc(OCC)c(OCC)c3)c(=O)c21 -8.69%
Cc1ccc(NC(=O)CCNS(=O)(=O)c2ccc3c(c2)CCN3C(=O)C2CC2)c(Cl)c1 5.14%
COc1cccc(CNC(=O)CSc2nc3ccccc3nc2Cc2ccc(C)cc2)c1OC -0.153%
CCCCNC(=O)CCn1c(=O)c2cccn2c2ccc(F)cc21 20.4%
COc1ccccc1N(CC(=O)N1CCC(C)CC1)S(=O)(=O)c1ccc(C)cc1 84.1%
CCN(C(=O)Cn1nc(Cc2ccncc2)c2ccccc2c1=O)c1cccc(Cl)c1 2.13%
COc1ccc(CCNC(=O)CN2C(=O)COc3ccc(C)cc32)cc1OC -2.12%
CCOC(=O)c1cc(-c2ccc(OC)c(S(=O)(=O)NC3CCCCC3)c2)on1 -17.8%
CCCCN(CC)CCCNC(=O)CN1C(=O)CSc2ccc(S(=O)(=O)N3CCOCC3)cc21 -26.9%

outcome, inactive:
Cc1c(NC(=O)C(F)(F)F)ccc2nc3c(=O)n(C)c(=O)n(C)c3nc12
COc1ccc(-n2ncc(C(=O)NCCCN3CCCCC3)c2C2CCN(C(=O)OC(C)(C)C)CC2)cc1
COc1cccc(NC(=O)Cn2c(=O)n(CCCCC(=O)NCc3ccc4c(c3)OCO4)c(=O)c3ccccc32)c1
CCOc1ccc(-c2cc(CCCC(=O)NCCc3ccc(OC)c(OC)c3)no2)cc1
CCC(Sc1ncnc2sc3c(c12)CCCC3)C(=O)OCC(C)C (stereo unspecified)
CCCS(=O)(=O)N1CC(=O)N(c2cc(C)cc(C)c2)C(C)(C(=O)NC2CCCCCC2)C1 (stereo unspecified)
CC(CNC(=O)c1csc2c1CCCCC2)c1ccccc1 (stereo unspecified)
CCc1ccc(NS(=O)(=O)c2ccc(NC(=O)N3CCCC3)cc2)cc1
Cc1ccc(NC(=O)CCc2c(C)nc3ncnn3c2C)cc1Cl
Cc1cccc(NC(=O)CN2C(=O)CC(c3ccccc3)Sc3ccccc32)c1 (stereo unspecified)
O=C(Nc1cccc(F)c1)C1CCN(S(=O)(=O)c2ccc3[nH]c4c(c3c2)CCCCC4)CC1
O=C(CSc1ncc(CO)n1Cc1ccc(F)cc1)NCc1ccco1
O=c1n(Cc2ccc(Cl)cc2)nc2n1-c1ccccc1OC2
Cc1ccc(N2CC(C(=O)NCc3nnnn3-c3ccc(C)c(C)c3)CC2=O)cc1C (stereo unspecified)
Cc1ccc(-c2nnc(Nc3ccc(S(N)(=O)=O)cc3)c3ccccc23)cc1S(=O)(=O)N1CCOCC1
CCc1ccccc1NC(=O)C(=O)NCC(c1cccnc1)N1CCc2ccccc21 (stereo unspecified)
Cc1ccc(NC(=O)NCC2CCN(Cc3cccc(Cl)c3)CC2)cc1Cl
Cc1cccc(NC(=O)CCNS(=O)(=O)c2cccc3nonc23)c1
O=C(Nc1cc(Cl)ccc1Cl)C1(c2cccs2)CCOCC1
COc1ccc(Nc2ncc(C(=O)Nc3cc(Cl)c(OC)cc3OC)c3ccccc23)cc1
CCOC(=O)CNC(=O)c1cc2c(=O)n3cccc(C)c3nc2s1
CCOc1ccccc1NC(=O)CSc1ncc(S(=O)(=O)c2ccc(C(C)(C)C)cc2)c(=O)[nH]1
